# Measured values as given in PubChem BioAssay AID1347165 (National Center for Advancing Translational Sciences (NCATS), 2019).
# Values joined by “and” are separate entries in the source; they are usually repeats but may differ in a detail not shown here. Equal values may be shown once. In all, about 220,000 compounds went through this assay and about 5,700 (2.6%) were called active. The shares of active, inactive and inconclusive entries below differ from those in the screen. The call rests on the fitted dose curve; in most records, active means well fitted inhibition curve with a large enough effect; inconclusive means small, poorly fitted or top-dose-only effect; inactive means no such curve, though single readings can be large or run the other way. Potencies of inconclusive entries are doubtful fits and often do not repeat.
# Biological target: Lysine-specific demethylase 5B (Homo sapiens) (UniProt Q9UGL1)
# Experiment: Primary screen for KDM5B Histone Demethylases FDH-coupled qHTS; further: nearly all actives have a fitted effect of over 70% in size; on activity change, negative = inhibition: 0% is about no effect
# Conditions: FDH-coupled NADH fluorescence (FDH is formaldehyde dehydrogenase); activity change, negative = inhibition: at 57.7 µM (top of the series) unless noted
# Procedure, shortened: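 Compound dilutions met 200 nM (final) KDM5BΔAP for 10 min at room temperature before substrate addition. The substrate mix held 12.5 µM H3K4me3 with cofactors 25 µM α-ketoglutarate and 50 µM Fe²⁺. NADH signal gain over 30 min defined activity.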
# Potency means the concentration at half of the fitted maximal effect; tags describe the fitted curve by direction and shape.
# Sequence of UniProt Q9UGL1 (Q9UGL1 whole entry, looked up): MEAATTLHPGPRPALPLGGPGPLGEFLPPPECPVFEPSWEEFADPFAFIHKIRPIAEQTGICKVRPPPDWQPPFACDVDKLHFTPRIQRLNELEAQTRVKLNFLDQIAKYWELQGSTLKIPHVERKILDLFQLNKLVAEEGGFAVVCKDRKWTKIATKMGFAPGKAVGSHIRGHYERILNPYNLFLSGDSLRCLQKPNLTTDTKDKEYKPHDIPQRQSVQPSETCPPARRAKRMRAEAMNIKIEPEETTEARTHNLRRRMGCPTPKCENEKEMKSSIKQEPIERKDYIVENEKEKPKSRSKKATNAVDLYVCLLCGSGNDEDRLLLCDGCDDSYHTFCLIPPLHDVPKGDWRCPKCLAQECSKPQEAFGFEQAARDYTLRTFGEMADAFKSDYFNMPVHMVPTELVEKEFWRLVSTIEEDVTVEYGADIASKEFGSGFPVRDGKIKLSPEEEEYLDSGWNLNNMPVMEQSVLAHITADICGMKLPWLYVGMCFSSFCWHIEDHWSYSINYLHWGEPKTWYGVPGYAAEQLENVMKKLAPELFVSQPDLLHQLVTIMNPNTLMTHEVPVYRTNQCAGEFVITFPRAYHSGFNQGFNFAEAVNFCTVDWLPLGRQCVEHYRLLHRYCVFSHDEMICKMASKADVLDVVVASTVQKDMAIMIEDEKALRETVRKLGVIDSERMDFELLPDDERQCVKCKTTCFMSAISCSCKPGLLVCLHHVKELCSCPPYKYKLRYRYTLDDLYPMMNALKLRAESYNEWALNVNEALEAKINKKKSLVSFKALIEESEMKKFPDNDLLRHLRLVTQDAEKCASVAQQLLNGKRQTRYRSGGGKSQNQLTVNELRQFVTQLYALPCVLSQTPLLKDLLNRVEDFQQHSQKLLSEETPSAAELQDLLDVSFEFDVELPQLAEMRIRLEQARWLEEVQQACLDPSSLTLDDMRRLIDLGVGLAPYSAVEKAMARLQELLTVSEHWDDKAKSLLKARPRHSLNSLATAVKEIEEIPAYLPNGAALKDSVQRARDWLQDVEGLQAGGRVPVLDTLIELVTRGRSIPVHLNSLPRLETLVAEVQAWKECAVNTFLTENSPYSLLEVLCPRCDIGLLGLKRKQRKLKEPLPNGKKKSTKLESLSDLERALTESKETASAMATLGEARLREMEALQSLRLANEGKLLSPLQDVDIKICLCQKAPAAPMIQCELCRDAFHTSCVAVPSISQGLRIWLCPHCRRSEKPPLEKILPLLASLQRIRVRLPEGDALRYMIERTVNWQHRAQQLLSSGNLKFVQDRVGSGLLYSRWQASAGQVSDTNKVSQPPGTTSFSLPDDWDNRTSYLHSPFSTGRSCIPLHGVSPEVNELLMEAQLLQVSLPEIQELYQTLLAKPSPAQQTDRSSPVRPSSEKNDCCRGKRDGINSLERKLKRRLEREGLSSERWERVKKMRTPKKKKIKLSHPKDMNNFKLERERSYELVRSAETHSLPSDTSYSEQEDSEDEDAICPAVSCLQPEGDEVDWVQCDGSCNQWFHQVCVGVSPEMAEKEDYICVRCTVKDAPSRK
SMILES,Potency,"activity change, negative = inhibition"
Cc1noc(C)c1S(=O)(=O)N(CC(=O)NCCc1ccc(Cl)cc1)c1ccc(C(C)C)cc1,"inconclusive: 12.6 µM [inhibitor, partial curve, poor fit]",
C=C(C)C[C@@H]1Cc2c(Br)cccc2[C@@H](CC(=C)C)N1,,inactive: -8.66%
Cc1nc2scc(CC(=O)NCC(C)C)n2c(=O)c1-c1cc(C)n(-c2cccc(Cl)c2)n1,"inconclusive: 15.8 µM [inhibitor, partial curve, poor fit]",
CC1(C)CC(=O)C=C(C(=O)N2CCCC(N3CCN(c4ccccc4F)CC3)C2)O1 (stereo not drawn),,inactive: -16.7%
CC(=O)c1ccc(NC(=O)CC2Nc3cc(C)c(C)cc3NC2=O)cc1 (stereo not drawn),"inconclusive: 31.6 µM [inhibitor, partial curve, poor fit]",
C=CCn1cc2c3c(cccc31)[C@H](CC(C)C)N[C@H](C(=O)O)C2,"inconclusive: 39.8 µM [inhibitor, single point]",
CC(C)(C)OC(=O)N1CCN(C(C(=O)O)c2c[nH]c3ccc(Cl)cc23)CC1 (stereo not drawn),,inactive: 13.4%
Cc1ccc(Cn2c(CNC(=O)c3ccc(Cl)c([N+](=O)[O-])c3)nc3cccnc32)cc1,"inconclusive: 28.2 µM [inhibitor, partial curve, poor fit]",
CCCC(c1cccs1)n1cc(-c2cncnc2)nn1 (stereo not drawn),"inconclusive: 39.8 µM [inhibitor, partial curve, poor fit]",
O=C(c1ccccc1-c1ncc(-c2ccccc2)o1)N1CCN(C(=O)C2CC2)CC1,"inconclusive: 31.6 µM [inhibitor, partial curve, poor fit]",
CCCc1ccc(NC(=O)C2CCCN(c3cnccn3)C2)cc1 (stereo not drawn),,inactive: 72.8%
CC(NC(=O)COc1ccccc1)C(=O)N1CCN(c2ccccn2)CC1 (stereo not drawn),active: 22.4 µM,
CCc1ccc2nc(-c3ccccn3)cc(C(=O)O)c2c1,"inconclusive: 25.1 µM [inhibitor, single point]",
C[C@@H](NC(=O)C[C@@H]1c2nc(-c3cccnc3)sc2C[C@@H]2[C@](C)(CO)[C@H](O)CC[C@]21C)c1ccccc1,active: 31.6 µM,
COc1c(C)cccc1-c1nc(C2CCOC2)no1 (stereo not drawn),,inactive: -17.7%
COC(=O)[C@H](C(C)C)N(CCCc1cn(Cc2ccc(C)cc2)nn1)S(=O)(=O)c1ccc(F)cc1Br,,inactive: -7.36%
CCN(CC)c1nc2ccccc2nc1C(C#N)S(=O)(=O)c1ccc(C)cc1 (stereo not drawn),"inconclusive: 28.2 µM [inhibitor, partial curve, poor fit]",
O[C@]12CCNC[C@H]1CN(Cc1cccc(N3CCOCC3)c1)CC2,"inconclusive: 3.98 µM [inhibitor, partial curve, poor fit]",
COc1ccc(/C=C(/F)c2nc3ccccc3s2)cc1,"inconclusive: 1.58 µM [inhibitor, partial curve, poor fit]",
Cc1ccc(Cl)cc1N1CCN(S(=O)(=O)c2ccc3c(c2)C(C(C)C)C(=O)N3)CC1 (stereo not drawn),"inconclusive: 25.1 µM [inhibitor, single point]",
COc1cccc(-c2nc(-c3nnn4c3COC(c3ccc(C)cc3)C4)no2)c1OC (stereo not drawn),"inconclusive: 15.8 µM [inhibitor, partial curve]",

SMILES,Potency,"activity change, negative = inhibition"
O=C(NC[C@H]1O[C@@H](CC(=O)N2CCc3ccccc32)[C@H](O)[C@@H]1O)C1CC1,"inconclusive: 31.6 µM [inhibitor, single point]",
CC(C)c1ccc(NC(=O)C2CCCN2S(=O)(=O)c2ccc3nc(-c4ccccc4)[nH]c3c2)cc1 (stereo not drawn),"inconclusive: 39.8 µM [inhibitor, single point]",
Cc1noc(C)c1CCCNC(=O)c1ccc(N(C)C2CCOC2)nc1 (stereo not drawn),,inactive: 1.14%
O=S(=O)(c1ccc(-c2csc(=Nc3ccc(F)cc3)n2CCCCCCO)cc1)N1CCCC1,"inconclusive: 28.2 µM [inhibitor, partial curve, poor fit]",
COc1cccc(Oc2coc3cc(O)ccc3c2=O)c1,"inconclusive: 25.1 µM [inhibitor, partial curve, poor fit]",
Cc1cccc(OCC(=O)Nc2ccc3c(c2)nc(CN2CCCCC2)n3C)c1,"inconclusive: 31.6 µM [inhibitor, single point] and inconclusive: 22.4 µM [inhibitor, single point]",
CN1CCN(S(=O)(=O)c2ccc(N(C)CCOc3ccc(Cl)cc3)nc2)CC1,,inactive: 1.27%
CCN(CC)c1cc(C)nc(Nc2ccc(NC(=O)CCCc3ccccc3)cc2)n1,"inconclusive: 22.4 µM [inhibitor, partial curve, poor fit]",
Cn1c(CN2CCC3(CCNCC3)C2)cc2ccccc21,"inconclusive: 20 µM [inhibitor, partial curve, poor fit]",
CCOC(=O)C1CCN(C(=O)c2c(C)nn(-c3ccc(F)cc3)c2-n2cccc2)CC1,"inconclusive: 25.1 µM [inhibitor, partial curve, poor fit]",
CNC(=O)CN(C)c1nc(-c2ccccc2)c2ccccc2n1,"inconclusive: 31.6 µM [inhibitor, partial curve, poor fit]",
CC1(C)CC(=O)C2=C(C1)Nc1c(c(=O)[nH]c(=O)n1Cc1ccccc1)C2c1ccc2c(c1)OCO2 (stereo not drawn),,inactive: -11.5%
COc1ccc2cc(CCNS(=O)(=O)c3ccc(C)cc3)c(=O)[nH]c2c1,"inconclusive: 28.2 µM [inhibitor, partial curve, poor fit]",
Cc1ccc(Nc2c(-c3cccnc3)nc3ccc(Cl)cn23)cc1,"inconclusive: 1.58 µM [inhibitor, full curve, poor fit]",
COc1ccc(Cn2c(=O)[nH]c3cc(OC)c(OC)cc3c2=O)cc1,"inconclusive: 15.8 µM [inhibitor, partial curve, poor fit]",
O=[S+]([O-])(Nc1nncs1)c1ccc2c(c1)OCCN(Cc1ccncc1)C2,"inconclusive: 44.7 µM [inhibitor, partial curve, poor fit]",
CN(Cc1cc(C[C@@H]2C[C@H](NCc3cccnc3)C2(C)C)no1)c1ccccc1,"inconclusive: 35.5 µM [inhibitor, single point]",
COC(=O)c1ccc2nc(CO[C@H]3CN(Cc4ccc(S(C)(=O)=O)cc4)C[C@H]3F)[nH]c2c1,,inactive: -23.8%
O=C(NCc1cccc(C(F)(F)F)c1)c1ccc2nccn2c1,active: 35.5 µM,
Cc1cccc(OCc2nc(C#N)c(NCc3cccnc3)o2)c1,,inactive: 0.817%
CCc1nnc(NC(=O)CCc2ccc(-c3ccc(C)c(C)c3)o2)s1,"inconclusive: 25.1 µM [inhibitor, partial curve, poor fit]",

SMILES,Potency,"activity change, negative = inhibition"
CN1CCC2(C1)CN(CC1CCOCC1)c1ccc(C(=O)NCCCO)cc12 (stereo not drawn),active: 35.5 µM,
O=C(Nc1ccncc1)c1ccc(SC(F)(F)F)cc1,,inactive: 14.4%
CCCCCOC(=O)c1c(C)oc2cc(C)c(NS(=O)(=O)c3cccs3)cc12,,inactive: -0.495%
COc1ccc(-c2cc(N3CCCN(C(=O)CCCc4ccccc4)CC3)n[nH]2)cc1,"inconclusive: 15.8 µM [inhibitor, partial curve, poor fit]",
CNC(=O)NC(=O)C(C)OC(=O)c1ccc(COc2ccc3c(C)cc(=O)oc3c2)cc1 (stereo not drawn),"inconclusive: 10 µM [inhibitor, partial curve, poor fit]",
COc1ccc2[nH]c(=O)c(CN(C(=O)c3ccccn3)C3CCCCC3)cc2c1,"inconclusive: 22.4 µM [inhibitor, partial curve, poor fit]",
Cc1cn2nnc(C(=O)NCC3CCCCC3)c2c(=O)[nH]1,"inconclusive: 39.8 µM [inhibitor, single point]",
COC(=O)CC1CCNCC1,,inactive: -13%
N#Cc1ccc(CN2CCCCCCNC(=O)[C@@H]3C[C@@H](C(=O)N4CCc5ccccc5C4)C[C@@H]32)cc1,active: 25.1 µM,
O=C(Nc1c(NCc2ccccc2)c2ccccc2oc1=O)c1cccc(Cl)c1,,inactive: 13.4%
COc1ccc(CNC(=O)c2cc(C)nc3ccccc23)cc1OC,"inconclusive: 25.1 µM [inhibitor, partial curve, poor fit]",
CN(C)C(=O)c1cccnc1OC1CCNCC1,"inconclusive: 17.8 µM [inhibitor, partial curve, poor fit]",
COc1ccc(OCC(=O)Nc2ccc(-c3nc4ccc(C)cc4o3)cc2)cc1,,inactive: -20.9%
CCc1cc(N2CCCC(OCc3ccccn3)C2)n2nc(C)c(C)c2n1 (stereo not drawn),"inconclusive: 22.4 µM [inhibitor, partial curve, poor fit]",
Cc1ccc(-c2nc(C#N)c(N3CCC(C(N)=O)CC3)o2)cc1,"inconclusive: 12.6 µM [inhibitor, partial curve, poor fit]",
Cc1ccc(C(=O)NC(C)C23CC4CC(CC(C4)C2)C3)s1 (stereo not drawn),,inactive: 15.1%
c1cc(-c2cc(-c3cn[nH]c3)cn3cncc23)ccn1,"inconclusive: 35.5 µM [inhibitor, partial curve, poor fit]",
COc1ccc(CN2CCCC(C)(NC(C)=O)C2)c2ccccc12 (stereo not drawn),"inconclusive: 12.6 µM [inhibitor, partial curve, poor fit]",
CCc1ccccc1Nc1ncnc2c1cnn2-c1ccc(C)cc1C,"inconclusive: 31.6 µM [inhibitor, partial curve, poor fit]",
COc1cccc(CNC(=O)c2cc3c(=O)n(Cc4cccnc4)ccc3nc2C)c1,"inconclusive: 31.6 µM [inhibitor, partial curve, poor fit]",
Cc1ccc(OCC(=O)Nc2nnc(SCc3cc(=O)n4cccc(C)c4n3)s2)cc1,"inconclusive: 28.2 µM [inhibitor, partial curve, poor fit]",
